For 62 molecules, Inhibition % results are on record in paper PMC9574860, “Chemical Toolkit for PARK7: Potent, Selective, and High-Throughput” (Journal of Medicinal Chemistry, 2022).

Molecules are shown by their SMILES. About 400 (5.1%) of roughly 7,900 compounds showed an effect of 50% or more. The list shows a part of the results.

Parkinson's disease protein 7 (PARK7/DJ1), sequence (Q99497 whole entry, looked up, the tested form may be a part): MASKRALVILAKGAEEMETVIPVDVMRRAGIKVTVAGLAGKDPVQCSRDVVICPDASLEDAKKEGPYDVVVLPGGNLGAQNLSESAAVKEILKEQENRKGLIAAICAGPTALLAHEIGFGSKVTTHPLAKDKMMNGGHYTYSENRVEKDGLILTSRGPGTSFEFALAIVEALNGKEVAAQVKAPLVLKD

This test addresses Parkinson's disease protein 7 (PARK7/DJ1) (human, UniProt Q99497). Kind of test: primary screen, percent inhibition; read as competition with a fluorescent probe by fluorescence polarization; higher = more effect of the substance. The following applies: 100 µM. How it is done:
The screen was conducted using the conditions as described above in 1536-well plates (Corning 3724) with a reaction volume of 8 μL per well. The compound library containing 7887 covalent fragments was purchased at Enamine Ltd. and received as 100 mM DMSO stocks in 384 well LDV Echo plates (Labcyte LP-0200). Stock solutions of 0.26 μM PARK7 and 80 nM JYQ-107 were prepared. Using a Labcyte Echo550 acoustic dispenser, 8 nL of the DMSO stock solution of the library compounds was transferred from the source plates into the empty 1536-well screening plates to obtain a 100 μM final compound concentration. Next, PARK7 (6 μL, final concentration 0.2 μM) was dispensed using a Biotek MultiflowFX liquid dispenser and incubated for 2 h, followed by dispensing the probe JYQ-107 (2 μL, final concentration 20 nM). After 2 h incubation, the FP signal was recorded on a BMG Labtech PHERAstar plate reader (λex/em 480/520 nm). The relative loss of FP signal compared with reference controls was used to calculate the remaining enzyme activity.
On to `C=CC(=O)N1CCN(c2ccccc2)CC1`, for which the Inhibition % is given as 7.23%.

With `C=CC(=O)N1CCCC(c2nnc(C)o2)C1` (centres unmarked), the Inhibition % is recorded as -0.0503%.

Take `C=CC(=O)N1C[C@H](OC)C[C@H]1c1nc(C2CC2)n[nH]1`: the Inhibition % is reported as 8.48%.

In the case of `CN(Cc1cc(Cl)cc(Cl)c1)C(=O)CCl`, the Inhibition % was found to be 32.4%. In the case of `CC1CC(N2CCC(N3CCN(C)C3=O)CC2)C(=O)O1` (centres unmarked), the Inhibition % is 5.28%.

As for `C=CC(=O)NCC1COC(=O)N1` (centres unmarked), the Inhibition % is 13.5%. Turning to `Cc1cc(N(CCC#N)C(=O)CCl)ccc1Cl`, the Inhibition % stood at 16.2%. In the case of `C=CC(=O)N1CCN(Cc2nc(C)c(C)o2)CC1`, the Inhibition % worked out at 0.857%. The same measure for `C=CC(=O)N1C[C@]2(C)CC[C@@H](C2)C1(C)C`: 15%; for `N#CC(=Cc1ccncc1)C(=O)Nc1ccccc1Cl`: 8.38%.

`N#CC=C([O-])C1CCCO1.[Na+]` (centres unmarked): the Inhibition % worked out at 16.6%. For `C=CC(=O)NCC1(C)CCC(OC)CC1` (centres unmarked), the Inhibition % is recorded as 8.04%. On to `C=CC(=O)N1CCCC(c2nc(-c3ccccc3)n[nH]2)C1` (centres unmarked), for which the Inhibition % came to 1.87%. With `O=C1OCCC1Sc1nnc2n1CCCCC2` (centres unmarked), the Inhibition % was -2.49%. For the molecule `C=CC(=O)NC1CC(OCC)C12CCC2` (centres unmarked), the Inhibition % is 7.24%.

Take `CNC(=O)Cn1cc(NC(=O)CCl)cn1`: the Inhibition % was determined as 20%. As for `Cc1cc(NS(=O)(=O)C=Cc2ccccc2)n(C)n1`, the figure is 15.4%; as for `N#Cc1nc(-c2ccc(Cl)c(Cl)c2)oc1N`, 5.93%; as for `CCc1cccc([B-](OC(C)C)(OC(C)C)OC(C)C)n1.[Li+]`, 10.5%. For the molecule `C=CC(=O)NC1CCc2c(OC)cccc21` (centres unmarked), the Inhibition % stood at 4.88%.

As to `N#Cc1nn(CC(=O)N2CCCCCC2)c2ccccc12`, the Inhibition % was 2.91%. In the case of `N#Cc1ncccc1Cl`, the Inhibition % amounted to 0.27%.

Turning to `CN(C(=O)C(C#N)=Cc1ccco1)c1ccc(F)cc1`, the Inhibition % is 8.11%. Turning to `N#CC(=Cc1c[nH]c2ccccc12)C(=O)N1CCCC1`, the Inhibition % amounted to 7.42%. Take `O=C1OCCC1Sc1nnc(-c2ccccc2F)o1` (centres unmarked): the Inhibition % is 1.18%. The same measure for `Cl.NCc1cccc(N2CCC2=O)c1`: 4.34%; for `CC(C)(C)C1CC=C(B2OC(C)(C)C(C)(C)O2)CC1` (centres unmarked): 2.59%; for `C=CC(=O)N1CCCN(C(=O)CC)CC1`: -4.88%. `O=C1OCC[C@@H]1NS(=O)(=O)c1cnc2ccsc2c1`: the Inhibition % stood at 8.91%. `CCCC(C#N)NS(=O)(=O)c1cccc(S(=O)(=O)F)c1` (centres unmarked): the Inhibition % turned out to be 96.8%. Turning to `C=CC(=O)N(Cc1cccc(-c2cccnc2)c1)C1CC1`, the Inhibition % is listed as 12.4%. `Cc1ccc(NC(=O)CN2CCSC2=O)c(C)c1`: the Inhibition % was 2.95%.

Turning to `CN(C)c1ccc(CNC(=O)n2ccnc2)cc1`, the Inhibition % amounted to 97%. Regarding `C=CC(=O)N1CCC(S(=O)(=O)N2CCCC2)CC1`, the Inhibition % worked out at 3.5%. `N#Cc1cc(N2CC(O)C2)c2ccccc2n1`: the Inhibition % is given as 9.88%.

With `C=CC(=O)NCc1ccc2cnn(C)c2c1`, the Inhibition % is 2.83%. Regarding `C=CC(=O)NC1CC2CCCC(C1)N2C1CC1` (centres unmarked), the Inhibition % stood at 7.52%. Turning to `CC1CN(C(=O)CCl)CC(C)(C)O1` (centres unmarked), the Inhibition % is listed as 22.7%.

With `O=S(=O)(F)c1ccc(S(=O)(=O)Nc2ccncc2F)cc1`, the Inhibition % is given as 17.6%. Consider `C=CC(=O)NC[C@]1(C)CC[C@H](C)C1(C)C`, for which the Inhibition % was found to be 3.54%. With `C=CC(=O)N1C[C@@]2(C)CS(=O)(=O)C[C@@]2(C)C1`, the Inhibition % was found to be 5.67%. In the case of `OB(O)c1ccc(OCCCN2CCCCC2)cc1`, the Inhibition % is reported as 6.33%. As for `C=CC(=O)N1CC2(CCCCC2)C1`, the figure is 6.22%; as for `Cc1ccc(C=CS(=O)(=O)Nc2ccc(C#N)cn2)cc1`, 11.1%.

Turning to `CN1CCCC1CCl.Cl` (centres unmarked), the Inhibition % was 4.93%. `O=C(N1CCc2[nH]c3ccccc3c2C1)n1ccnc1`: the Inhibition % came to 52.4%. Turning to `CC(=O)Nc1ccc(C=C(C#N)C(=O)N2CCCC2)cc1`, the Inhibition % was 14.9%. The same measure for `C=CC(=O)N1CCC(c2cc(C)ccn2)C1` (centres unmarked): 13.9%; for `C=CC(=O)NCc1ccno1`: 4.01%.

On to `COC1(C)CC(NC(=O)C(C#N)=Cc2ccco2)C1(C)C` (centres unmarked), for which the Inhibition % is 11.4%. The same measure for `O=C(Oc1ccccc1)N1CCOCC1`: 1.63%; for `C=CC(=O)N1CCCCC1c1nc(-c2ncccn2)no1` (centres unmarked): 4.26%; for `COc1ccc(Cl)cc1C(=O)NNC(=O)CCl`: 29.8%.

Consider `C=CC(=O)NC(C)C1CCC(F)CC1` (centres unmarked), for which the Inhibition % is recorded as -3.49%.

Take `Cc1ccc(Cl)c(OCC2CO2)c1` (centres unmarked): the Inhibition % worked out at 7.81%. As for `Cl.Cn1c(CCCl)nc2ccccc21`, the Inhibition % is on record as 3.43%.

For the molecule `Cc1nc2sccn2c1C#N`, the Inhibition % worked out at 12.3%.

Regarding `COC1(OC)CC2(C1)C(=O)NC2C(C)C` (centres unmarked), the Inhibition % was -0.768%. As for `C#CC(=O)Nc1ccc(CC(=O)O)cc1`, the figure is 0.397%; as for `N#CCCn1cc(C(=O)CCl)c2ccccc21`, 25.9%. Take `O=C(CCl)N1CCC(C(=O)N2CCCCC2)CC1`: the Inhibition % came to 18.3%.

For `CC1(C)C(=O)NC1c1ccncc1` (centres unmarked), the Inhibition % was 4.06%.
